# Measurements: PubChem BioAssay AID1347073 (National Center for Advancing Translational Sciences (NCATS), 2019)
# Among all 45,000 compounds or so, about 200 (0.44%) were called active. Another 7% or so got no clear call; they are omitted. The call rests on the fitted dose curve; in most records, active means well fitted activation curve with a large enough effect; inconclusive means small, poorly fitted or top-dose-only effect; inactive means no such curve, though single readings can be large or run the other way. The list shows a part of the results.
# Experiment: qHTS of TDP-43 Inhibitors: NCGC Sytravon Library Screen; further: 0% is about no effect; nearly all actives have a fitted effect of over 55% in size
# Conditions: yeast TDP-43 toxicity rescue, BacTiter-Glo growth, 24 h; series mostly up to 46.1 µM; growth rescue (activation): at the top concentration
# Procedure, shortened: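 TDP-43-expressing yeast, pregrown in raffinose, seeded at OD600 0.02 in galactose medium with compound for 24 hr at 30 deg C. Growth read by BacTiter-Glo luminescence, so rescue of toxicity appears as activation.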
row,SMILES,growth rescue (activation)
1,CC(=O)Nc1cccc(C(=O)NC(C)c2ccc(S(N)(=O)=O)cc2)c1 (configuration not stated),inactive: 8.04%
2,CCCn1c(=N)n(CC(O)COc2ccccc2OC)c2ccccc21 (configuration not stated),inactive: 4.92%
3,CCc1nc2ccc(C(=O)Nc3cc(-c4ccccc4)ccc3OC)cn2c1N(C)Cc1nccs1,inactive: 2.22%
4,Clc1ccc2nc3c4ccccc4cnn3c2c1,inactive: -0.0143%
5,O=C(N/N=C/c1coc2ccccc2c1=O)c1cn(-c2ccccc2)nc1-c1ccccc1,inactive: 6.06%
6,Cc1ccc(NC(=O)CN2C(=O)NC3(CCCC3)C2=O)c(Cl)c1,inactive: -0.733%
7,Cc1cccc(NC(=S)Nc2ccc(N3CCOCC3)cc2)c1C,inactive: 17.7%
8,CN1CCN(c2ccc(NC(=O)c3cc([N+](=O)[O-])ccc3N3CCOCC3)cc2)CC1,inactive: -16.7%
9,CCOC(=O)C1(CCOc2ccccc2)CCN(Cc2cccn2-c2cccnc2)CC1,inactive: -3.5%
10,CCC(=O)Nc1cc(-c2cc3ccccc3oc2=O)ccc1OC,inactive: -4.14%
11,S=c1[nH]nc(-c2cccnc2)n1C1CCCCC1,inactive: 1.25%
12,C=CCNc1nnc(SCC(=O)N2CCC(C(N)=O)CC2)s1,inactive: 16.4%
13,CC1CCN(C(=O)c2ccc(CNc3c(N4CCCC4)c(=O)c3=O)cc2)CC1,inactive: 17%
14,Cc1ccc(-c2nnn(CC(=O)N(CC(=O)NC3CCCC3)c3ccc(F)cc3)n2)o1,inactive: 10.3%
15,CCc1nc2c(OCc3ccc(F)c(F)c3)cccn2c1N(C)C(=O)c1cccs1,inactive: 27%
16,COc1ccc(C2CC(c3ccccc3)=NN2C(=O)COC(=O)c2cccc(S(=O)(=O)N3CCOCC3)c2)cc1 (configuration not stated),inactive: 4.73%
17,CCC(=O)N(Cc1cc(=O)[nH]c2ccccc12)c1ccccc1C,inactive: 9.38%
18,CCOc1ccc(CN2C(=O)c3ccccc3C2=O)cc1C(=O)O,inactive: 0.98%
19,CN(C)c1ccc(NC(=S)NC23CC4CC(CC(C4)C2)C3)cc1,inactive: -14.4%
20,O=C(NC1CCCC1)C(c1ccc(F)cc1)N(Cc1ccccc1)C(=O)c1csnn1 (configuration not stated),inactive: 0.968%
21,CNS(=O)(=O)c1cc(NC(=O)CCNC(=O)c2ccco2)ccc1C,inactive: -1.81%
22,CC1(C)Cc2c(c(=S)nc(-c3ccccc3)n2CCOCCO)CO1,inactive: 4.13%
23,COc1cccc(N(C(=O)c2ccco2)C(C(=O)NC2CCCC2)c2ccc(N(C)C)cc2)c1 (configuration not stated),inactive: 9.36%
24,CCCC(=O)N(Cc1cc(=O)[nH]c2ccccc12)c1ccccc1,inactive: -4.33%
25,O=C(N/N=C/c1cccnc1)c1cccc(NC(=O)c2ccc(Cl)cc2)c1,inactive: -2.8%
26,O=C(CN1CCN(c2ccccn2)CC1)Nc1cccc(Br)c1,inactive: 18%

row,SMILES,growth rescue (activation)
1,Cc1ccc2nc(-c3ccc(NC(=O)C(C)N4C(=O)c5ccccc5C4=O)cc3)sc2c1 (configuration not stated),inactive: 6.05%
2,CCC(C)NC(=O)CCc1c(C)nc2c(c(C)nn2-c2ccc(C)cc2)c1C (configuration not stated),inactive: 6.56%
3,COc1ccc(N2CC(C(=O)Nc3ccc4c(c3)OCCO4)CC2=O)cc1 (configuration not stated),inactive: 2.74%
4,COc1ccc(CCNC(=O)CN2C(=O)NC3(CCCCC3)C2=O)cc1,inactive: 8.38%
5,CCOC(=O)c1ccc(-c2ccc(/C=C(\C#N)c3nc4ccc(C)cc4[nH]3)o2)cc1,inactive: 1.53%
6,N#C/C(=C(/O)CN1CCCC1)c1nc(-c2ccccc2)cs1,inactive: -6.55%
7,CN(Cc1ccccc1)c1nc(CN2CCOCC2)nc2scc(-c3ccccc3)c12,inactive: 8.32%
8,Cc1cccc2c1N(C(=O)CN1C(=O)c3ccccc3C1=O)C(C)(C)c1ssc(=S)c1-2,inactive: 13.2%
9,Cc1ccc(N2CC(C(=O)NCCN3CCOCC3)CC2=O)cc1 (configuration not stated),inactive: -0.577%
10,CCN1CCC2(CC1)Oc1c(OC)cccc1C1CC(c3cccnc3)=NN12 (configuration not stated),inactive: 0.904%
11,CCc1nnc(NC(=O)COc2ccc([N+](=O)[O-])cc2)s1,inactive: 4%
12,Nn1cnnc1SCC(=O)N(C1CCCCC1)C1CCCCC1,inactive: 7.89%
13,CC1Cc2ccccc2N1S(=O)(=O)c1cccc(C(=O)N2CCCCC2)c1 (configuration not stated),inactive: -0.0385%
14,COc1ccc2[nH]c(=O)c(CN(C(=O)C3CCCO3)c3ccc(C)c(C)c3)cc2c1 (configuration not stated),inactive: -2.66%
15,CC(=O)NC(=S)Nc1ccccc1N1CCCCC1,inactive: 19.8%
16,NC(=O)C1CCN(C2CC(=O)NC2=O)CC1 (configuration not stated),inactive: 7.57%
17,CC(=O)Nc1ccc(S(=O)(=O)N2CCC(C(=O)O)CC2)cc1,inactive: 2.18%
18,Cc1sc2nc(SCCN(C)C)n(-c3ccccc3)c(=O)c2c1-c1ccc(F)cc1,inactive: -15.8%
19,CN(C)CCNC(=O)C(=O)c1c(-c2ccccc2)cc2ccccn12,inactive: -15.1%
20,CCC12C(=O)C(CC)(C(c3ccccc3)=C1c1ccccc1)[C@@H]1C(=O)N(c3ccccc3)C(=O)C12 (some centres not stated),inactive: 9.01%
21,O=C(Cn1c(=O)oc2cc(S(=O)(=O)N3CCCCCC3)ccc21)Nc1ccc(F)cc1F,inactive: 9.78%
22,CN(C(=O)CSc1nnc(Nc2ccccc2F)s1)C1CCS(=O)(=O)C1 (configuration not stated),inactive: 0.896%
23,O=C(CSc1ccccc1)Nc1nc2ccccc2[nH]1,inactive: 8.32%
24,COCCNc1nc(NCc2cccc(OC)c2)c2sccc2n1,inactive: 10.8%
25,COc1cccc2c1OCC([C@@H]1C[C@H]3CN(Cc4cccc(Cl)c4)C(=O)[C@]34CCCN14)=C2,inactive: 8.68%
26,Cc1cccc(C(=O)OCC(=O)N(C)c2ccccc2)c1C,inactive: -25.9%
